Read counts are not given, so values of variants with three or more changes are uncertain.
B1: LINE1-full (parent)
chain: UACGUAGGUGGUUUUCCCCUGAUAGUGCUAAGGGGGCCUGGAAGUUUGGACUGGGCAGAGCUCAACACAGCGUGGCAAAGUGGCUGUGGCUAGACUGCCUCUCUGGAUUCCUCGUCACUCAGCAGGGCAUCUCUGAGAGAAAUGCC

Variants of: B1
Assay: self-cleavage, relative activity (ratio to wild type); higher = more cleavage; in vitro, sequencing; the parent is a self-cleaving ribozyme

| Variant | self-cleavage |
| --- | --- |
| A59G U62C U96C | 0 |
| U9A U73A U87C U115A | 0.09 |
| A6C U29G C51U | 1.39 |
| G7U A31U U45C U81A | 2.59 |
| G21A U112C C113U | 0.39 |
| U29A A67U A136G | 0.18 |
| A6G U26C U52A A121C | 1.28 |
| A6G U91C A121G | 0.88 |
| C28U A67G U143A | 0.2 |
| U12C G48U A65U A129U | 0.11 |
| U39A C101U A117G | 1.25 |
| U13C C37U A124U | 1.1 |
| A124G U134C A136G | 1.49 |
| U26C G34A A42G | 0.8 |
| G21A G105A A129U | 1.75 |
| U13C A31U U130C | 0.92 |
| U13C U23A U91A U112C | 0.77 |
| A22U A30G G49U | 0.77 |
| A22U A50U A79G A124G | 0.84 |
| A77U U102A A136G | 1.49 |
| U9C A42G U62C | 0.21 |
| U13C U52C A121U | 1.65 |
| U62C A67U A79G | 0.05 |
| U20C U29C A121C | 2 |

| Variant | self-cleavage |
| --- | --- |
| A50C A67G U73A | 1.19 |
| U20G U26A U102C A107G | 1.02 |
| U12A U81C U102C A142G | 1.27 |
| C19U U62C A69G | 0.05 |
| U20A U52C U100C U143C | 2.38 |
| G11C A69U U96A | 0.01 |
| U5C U45C U85C A138G | 0 |
| U15C A77U A78G U112C U119C C133U | 0.65 |
| A50G A57C U104A | 0 |
| U20A U85G A107G | 0.31 |
| U15C U29C U112C | 0.2 |
| U9A U85C U96G U104C | 0.84 |
| A24G A43G A107G | 0.68 |
| A2G C3U G7C U73C | 0.8 |
| U9A U13C U14C A50G U87C G127A | 0.17 |
| A2G U62C A94G | 0 |
| U39C A57G A64G C71U A77G | 0.12 |
| A24U A124G A138U A141G | 1.57 |
| G34A A136G A138U | 0.58 |
| U12C C19A U108C U115C | 1.67 |
| U9C C19A U29C | 0.7 |
| U9C U109C A136G | 2.52 |
| U20G U112C A142C | 0.44 |
| U13A G48A U100C A138G U143C | 1.76 |

| Variant | self-cleavage |
| --- | --- |
| U13C C95U A107G | 0.1 |
| G44U A67G U85A A107G A121G A140G | 0 |
| U20C U81A A124G | 2.13 |
| A77G G89A U104C | 0.36 |
| U13A G89A A136U A142G | 0 |
| A6G U12A C37G | 0.35 |
| U46C U62C U81A | 0.07 |
| U45C U73C G88A | 0.52 |
| U15C U20C G40A U87C U104C U112G | 0 |
| A78G U109C U112A | 0.57 |
| U20C A42G A43G U102C | 2.12 |
| G33A G125A U143C | 1.37 |
| U52C A117G G125U | 2.22 |
| U91A A121U A124U | 0.61 |
| U62A A67G U96C A136U | 0 |
| U20C U47C A124U | 1.98 |
| U87C U100A A136G | 0.13 |
| C71U U85C C99U | 0.04 |
| U14C A22G C84G U119C | 0.44 |
| U1C A78G A142G | 0.63 |
| U14G A22C G105U U119C | 1.41 |
| U112A A117C U130C | 1.78 |
| A24G U73C A117U | 2.02 |
| U20A A22C A121G | 0.98 |

| Variant | self-cleavage |
| --- | --- |
| U14C U87A U96C A140G | 0.07 |
| U14C C28U U104C | 0.91 |
| U5G U13C U102C A124U | 0.41 |
| A64G U85C U104C | 0 |
| U100C U115C A140G | 0.77 |
| U20A G49C C116U | 1.37 |
| A6U U39C C90U | 0.2 |
| U62A A64U A92G A124G | 0.14 |
| U13C C51U A107G | 0.65 |
| U14C G41A U46C | 1.25 |
| U13A U39C U62A U87G U109C | 0 |
| U12G C103U A121U | 1.68 |
| U87A A140G A142G | 0.07 |
| G48U G93U A140U A142G | 0.03 |
| A59G C63U G88A A129U | 0.03 |
| U39C G54A A94U | 0.14 |
| A24C U62C U85C U132C A140G | 0 |
| A22G U130A A140G | 2.4 |
| A94G U96G U134C | 0 |
| A42G U73C A77U | 1.8 |
| G55A A69G U104C G125C | 0.23 |
| A78U A136G U143A | 2.16 |
| U14C A69G A121U | 0.99 |
| U5C G80A A138G | 2.47 |

| Variant | self-cleavage |
| --- | --- |
| U14C U26A U47C U109C | 0.96 |
| A31U U81A G88A U96C U119A | 0.07 |
| A22C A67G A140G | 1.69 |
| U20C G32A G49A | 0.45 |
| A78G G82A U112C U143C | 1.32 |
| U52A U100C U115A | 2.35 |
| U87A U130C A138G | 0.26 |
| U13C U87A A142G | 0.22 |
| A94U A129U A142G | 0.39 |
| U9C C37U U130A | 1.17 |
| G4A A22G A136G | 1.11 |
| A57U A69G G106A | 0.05 |
| A24G U45G A59U C128U | 0.3 |
| U46C U96C U130C | 1.15 |
| U29C A30G A117G | 0 |
| U26A A30U A43G A142G | 0.26 |
| U14C U45G U85C G135A | 0.16 |
| U29C U46A A69U A141G | 0.09 |
| C66U U81A A142U U143C | 0.03 |
| U12G U52C A57G A69U | 0.22 |
| U39A A50U U52C | 1.17 |
| U5C G36A A94G U109C U112C | 0 |
| A43G U115C A142G | 0.84 |
| U46A U52C U87A U109A | 0.04 |

| Variant | self-cleavage |
| --- | --- |
| A69G A77U A92U | 0.18 |
| U26A A79G C118U A142G | 0.78 |
| U81A A107G U119A | 2.81 |
| A22G G35U A69G | 0.29 |
| A22G G36A U81C | 1.19 |
| U13A U39A A43G | 0.06 |
| U13A U73C G86A | 0.05 |
| U45C U87C A94U U112C | 0.13 |
| A31U G35A A43U A78U | 1.18 |
| U15C U20C U62C | 0 |
| U46C A59G G126U | 0.09 |
| U5C G122A A136U | 2.07 |
| A65G U73A U91G | 0.06 |
| U62A U87G A129G | 0.03 |
| A2G U115C U134A A142G | 0.77 |
| U12C A59U U115C | 1.48 |
| U12C A79G U132A | 1.81 |
| U12G U47C A142G | 1.75 |
| A50C A57U U96C | 0 |
| G4A U13C U23C U46A U100C G122A | 0.98 |
| U15C U26A U91A | 0.71 |
| U23A U46A A50U | 0.9 |
| A22G G33C U112C | 1.23 |
| U29C U52A A65C | 0.08 |

| Variant | self-cleavage |
| --- | --- |
| U9A U12C U15C | 0.77 |
| A2G G126U G139A | 1.23 |
| U39C A57U U62C | 0.13 |
| U87A A107U G137A | 0.08 |
| A22G G35C U112C A117G | 0.71 |
| A31G U73A U81A U115A A117G C120U U143C | 1.38 |
| U13C U91C C99U U130A | 0.13 |
| U12C U29C U102A A138U | 0.85 |
| U87A A107G C123U U134C | 0.07 |
| A42G U52A U91C C133A G137U | 0.47 |
| U45C A107G C128G | 1.04 |
| G41U G58A U112C A140G | 0.02 |
| U13C A43G A57G C110U U134C | 0.97 |
| U73A U100C A107C | 0 |
| A31G A57G C76G A141G U143C | 2.74 |
| U87A A94G U112C A138G | 0.12 |
| A24G U39C A57G | 1.53 |
| U23C G44A A129U U130C | 1.55 |
| U15C A64G U119A | 0.13 |
| U23C U52A C68U | 0.25 |
| A31C A67U A78U A140U | 0.21 |
| U73C A78G U104A U134C | 1 |
| U12G U14C U73A A78G C120U A124G | 0.52 |

— the RNAGym collection of RNA variant scans (doi:10.7554/elife.90254)
